Some of the results follow.
Tests used:
HSkMC = human skeletal muscle cells; assay: cytotoxicity call (relative viability < 0.9); settings: 10 µM
HepG2 = assay: cytotoxicity call (relative viability < 0.9); settings: 10 µM
S. aureus RN4220 = assay: growth inhibition call (relative growth <= 0.2); settings: 50 µM

Cc1noc(C)c1S(=O)(=O)Nc1ccc2c(c1)C(=O)N([C@H](C)CO)C[C@@H](C)[C@@H](CN(C)Cc1ccc(-c3ccccc3)cc1)O2
inactive: cytotoxicity call (HSkMC) | cytotoxicity call (HepG2) | growth inhibition call (S. aureus RN4220)

COCC#Cc1cnc2c(c1)C(=O)N([C@@H](C)CO)C[C@@H](C)[C@H](CN(C)S(=O)(=O)c1ccccc1)O2
inactive: cytotoxicity call (HSkMC) | cytotoxicity call (HepG2) | growth inhibition call (S. aureus RN4220)

C[C@H](CO)N1C[C@H](C)[C@H](CN(C)Cc2ccc(F)cc2)Oc2ncc(-c3cccc(C(F)(F)F)c3)cc2C1=O
inactive: cytotoxicity call (HSkMC) | cytotoxicity call (HepG2) | growth inhibition call (S. aureus RN4220)

C[C@H]1CN([C@@H](C)CO)C(=O)c2cccc(NC(=O)Nc3cccc4ccccc34)c2O[C@H]1CN(C)C(=O)Nc1ccc(F)cc1
inactive: cytotoxicity call (HSkMC) | cytotoxicity call (HepG2) | growth inhibition call (S. aureus RN4220)

Cc1ccc(S(=O)(=O)N(C)C[C@@H]2Oc3ccc(NC(=O)CCCN(C)C)cc3CC(=O)N([C@H](C)CO)C[C@@H]2C)cc1
inactive: cytotoxicity call (HSkMC) | cytotoxicity call (HepG2) | growth inhibition call (S. aureus RN4220)

C[C@@H]1CCCCO[C@H](CN(C)C(=O)Nc2ccccc2)[C@H](C)CN([C@@H](C)CO)C(=O)c2cc(NC(=O)NC3CCCCC3)ccc2O1
inactive: cytotoxicity call (HSkMC) | cytotoxicity call (HepG2) | growth inhibition call (S. aureus RN4220)

C(=N\n1cnnc1)/c1ccccn1
inactive: cytotoxicity call (HSkMC) | cytotoxicity call (HepG2) | growth inhibition call (S. aureus RN4220)

CC1=Nc2ccccc2NC(C)(C)C1
inactive: cytotoxicity call (HSkMC) | cytotoxicity call (HepG2) | growth inhibition call (S. aureus RN4220)

C[C@@H]1CN([C@H](C)CO)C(=O)c2cccc(NS(=O)(=O)c3cccs3)c2O[C@@H]1CN(C)S(=O)(=O)c1cn(C)cn1
inactive: cytotoxicity call (HSkMC) | cytotoxicity call (HepG2) | growth inhibition call (S. aureus RN4220)

Cc1ccc(S(=O)(=O)Nc2ccc3c(c2)CC(=O)N([C@H](C)CO)C[C@H](C)[C@@H](CN(C)Cc2ccc(Cl)c(Cl)c2)O3)cc1
inactive: cytotoxicity call (HSkMC) | cytotoxicity call (HepG2) | growth inhibition call (S. aureus RN4220)

N[C@H](Cc1ccccc1)C(=O)O
inactive: cytotoxicity call (HSkMC) | cytotoxicity call (HepG2) | growth inhibition call (S. aureus RN4220)

COCCn1cc2c(n1)[C@H](CNC(=O)CS(C)(=O)=O)OCC2
inactive: cytotoxicity call (HSkMC) | cytotoxicity call (HepG2) | growth inhibition call (S. aureus RN4220)

C[C@@H]1CCCCO[C@H](CN(C)S(=O)(=O)c2ccccc2)[C@H](C)CN([C@H](C)CO)C(=O)c2cc(NS(=O)(=O)c3ccc(Cl)cc3)ccc2O1
inactive: cytotoxicity call (HSkMC) | cytotoxicity call (HepG2) | growth inhibition call (S. aureus RN4220)

Cc1noc(C)c1NC(=O)Nc1ccc2c(c1)C(=O)N([C@H](C)CO)C[C@@H](C)[C@H](CN(C)Cc1ccc(C(=O)O)cc1)OCCCC[C@H](C)O2
inactive: cytotoxicity call (HSkMC) | cytotoxicity call (HepG2) | growth inhibition call (S. aureus RN4220)

— the antibiotic and cytotoxicity screens of Wong et al. (2023)
